For 172 sequences, binding signal results are on record in publication PMC6212790.

This is one part of the list. At the low end of the ranking the order means little.

The experiment deals with T1, GST-Rok-C97-191 (UniProt O34857).
T1 sequence: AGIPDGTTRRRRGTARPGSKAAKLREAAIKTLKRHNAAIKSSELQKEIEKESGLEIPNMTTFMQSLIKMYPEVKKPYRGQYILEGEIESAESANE
Briefly: protein binding microarray.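 Note: rank score from −0.5 (least bound) to 0.5 (best bound).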 The settings on record: Rok is a gene silencer of Bacillus subtilis; high values mean tight binding; most listed sequences are background and not binding sites; double strand, one strand shown.
In turn, CCAGTCCG yielded a binding signal of -0.282 E-score.
The same measure for AAGCCGGT: -0.131 E-score; for AGCAGACA: -0.0555 E-score.
Sequence CCGCTAAG gave a binding signal of -0.144 E-score.
Sequence CTTACGCA displayed a binding signal of -0.0174 E-score.
In turn, GAGTTGCC returned a binding signal of -0.139 E-score.
CACCTTCG showed a binding signal of -0.23 E-score.
The same measure for CAAGAATA: 0.000184 E-score; for TCGGCTAA: 0.101 E-score.
Take CTCCCCGC: the binding signal was -0.241 E-score.
In the case of ACTACCCA it was 0.332 E-score; in that of AGGAGGGG, -0.316 E-score.
Sequence ATCGGCAT showed a binding signal of 0.15 E-score.
Regarding CTGCGTTC, the binding signal is -0.258 E-score.
Turning to CATAATAC, the binding signal was 0.191 E-score.
As for CCTGCCAC, the binding signal was -0.24 E-score.
As to AGCACGCC, the binding signal was -0.0145 E-score.
In turn, CGTCAACG yielded a binding signal of -0.152 E-score.
Take CGAATTAA: the binding signal came to 0.0451 E-score.
The sequence CCCCGTTC came in with a binding signal of -0.0965 E-score.
Sequence CTCCCAGC displayed a binding signal of -0.185 E-score.
On to AATTTTCC, for which the binding signal worked out at 0.259 E-score.
As to ACGACCAA, the binding signal worked out at 0.00408 E-score.
As for CCCTTCAG, the binding signal is -0.144 E-score.
The same measure for ACGTGGCT: -0.0852 E-score.
The same measure for CAGATGCA: -0.219 E-score.
As to AGATGGGA, the binding signal was determined as 0.202 E-score.
In the case of CTCGCACC it was -0.0842 E-score.
GGTAATGA: the binding signal is 0.129 E-score.
In the case of ATAGCCCA it was 0.0263 E-score; in that of CAAAAATA, 0.0976 E-score.
The same measure for ACTAAGGG: -0.125 E-score; for GCAAATGC: 0.127 E-score.
Turning to GGAAGAGA, the binding signal was -0.124 E-score.
Sequence GAAACCTC gave a binding signal of -0.201 E-score.
In the case of ATGCGGCC it was -0.273 E-score; in that of ACGGTGGG, -0.152 E-score.
AATAGTCC came in with a binding signal of 0.151 E-score.
Take GCAGTTGA: the binding signal is 0.0646 E-score.
In turn, CCTAATGA had a binding signal of -0.186 E-score.
Sequence AATGTGTA came in with a binding signal of 0.204 E-score.
Take GGAGTTAA: the binding signal is -0.0411 E-score.
CTGTATCA gave a binding signal of 0.0261 E-score.
The sequence CTACAGGA showed a binding signal of -0.0131 E-score.
For the sequence ATAGACTA, the binding signal turned out to be 0.176 E-score.
The sequence AAATTGCC registered a binding signal of 0.0994 E-score.
In the case of AACTTCGC it was 0.206 E-score; in that of AATGATTG, 0.00546 E-score.
The same measure for AACGCCTA: 0.12 E-score; for ATCACGCA: 0.122 E-score.
Consider GAGAACAC, for which the binding signal was determined as 0.197 E-score.
The sequence CCTCGCGA displayed a binding signal of -0.26 E-score.
For CTTAATGA, the binding signal is -0.162 E-score.
In the case of CATCTCGC, the binding signal was 0.00983 E-score.
As to CCAGCGAG, the binding signal is -0.055 E-score.
The sequence CTAATGGC registered a binding signal of -0.0853 E-score.
The same measure for TAATTGTA: 0.326 E-score; for ACACCCGA: 0.0729 E-score; for ATACTGCC: -0.00169 E-score.
Turning to TGTATACA, the binding signal worked out at 0.37 E-score.
As for AACGACAA, the binding signal turned out to be 0.114 E-score.
Turning to GCCGAAGA, the binding signal is -0.0317 E-score.
The same measure for CGCCTTCC: -0.257 E-score; for CTTTGGCA: -0.184 E-score; for GCTGAAAA: -0.094 E-score.
Sequence ATCCCGCA displayed a binding signal of -0.0982 E-score.
CCAAACTA had a binding signal of 0.376 E-score.
CTTTCCAC registered a binding signal of 0.0598 E-score.
The sequence GCGATCCA gave a binding signal of -0.01 E-score.
For the sequence CCGTGTTA, the binding signal worked out at 0.0658 E-score.
Turning to AATACGTA, the binding signal turned out to be 0.287 E-score.
Sequence ATAAGAAA gave a binding signal of 0.157 E-score.
Sequence CTCGTCAC gave a binding signal of -0.0855 E-score.
Consider ATGAATAG, for which the binding signal was 0.0385 E-score.
The sequence GTGAGAAC showed a binding signal of 0.155 E-score.
Sequence AGTATTTG registered a binding signal of 0.194 E-score.
Take GTCGAGAA: the binding signal was -0.0153 E-score.
As to ATTCTCTG, the binding signal is -0.115 E-score.
Consider GACTTGAC, for which the binding signal was -0.254 E-score.
For the sequence CAAAGCTG, the binding signal is -0.0247 E-score.
Sequence ATGCCTGC showed a binding signal of -0.108 E-score.
Sequence ATTAGGAA had a binding signal of -0.056 E-score.
Sequence AGCAAAAA had a binding signal of -0.107 E-score.
In turn, CGGCGGAA came in with a binding signal of -0.234 E-score.
The same measure for ACGCGAGC: 0.00341 E-score; for ACCGCCAG: -0.217 E-score.
Turning to GAAAAAGC, the binding signal is -0.183 E-score.
The same measure for ACGCGAAG: -0.103 E-score.
The sequence AATGGTGC came in with a binding signal of -0.0745 E-score.
In the case of ATCAACTC it was 0.124 E-score; in that of CTTCAAAC, -0.0291 E-score.
With AATGGATC, the binding signal was -0.216 E-score.
ATAATACC showed a binding signal of 0.197 E-score.
The sequence CGCCTATA registered a binding signal of 0.0489 E-score.
Sequence AGCGTAAC registered a binding signal of 0.0837 E-score.
For CCCAACAG, the binding signal is -0.0551 E-score.
The same measure for CCCGTAGA: -0.158 E-score; for CGGCTTTC: -0.233 E-score; for CCCTTTGC: -0.268 E-score.
Sequence ACAACACA gave a binding signal of -0.0665 E-score.
In turn, TCGCCACA had a binding signal of -0.0452 E-score.
In turn, CCCAATAA gave a binding signal of -0.0896 E-score.
For the sequence GCCGCGAC, the binding signal is -0.359 E-score.
In the case of CGTATCGA it was -0.0144 E-score; in that of AGGAAAGA, -0.128 E-score; in that of GAGCGGGA, -0.246 E-score.
Take AAGGGAGG: the binding signal is -0.192 E-score.
In the case of ACGTGCTC, the binding signal was -0.238 E-score.
GGGGGGGA showed a binding signal of -0.333 E-score.
Sequence ATATTCCG came in with a binding signal of 0.273 E-score.
The same measure for CGCCTAGC: -0.0541 E-score; for ATCGTTTA: 0.0197 E-score; for AATTATGA: 0.113 E-score.
AATCCCCC displayed a binding signal of -0.262 E-score.
CATAAGGG had a binding signal of -0.0186 E-score.
Consider TCATCTCA, for which the binding signal was -0.135 E-score.
Sequence AATAGATC gave a binding signal of 0.161 E-score.
As to CCATGTCG, the binding signal is -0.0506 E-score.
Sequence ACGGGCCT returned a binding signal of -0.248 E-score.
In the case of GGTCAGAA it was -0.0853 E-score.
In the case of AGCATAGA it was -0.0904 E-score.
Consider TGCATGCA, for which the binding signal is -0.11 E-score.
AGTGCATC had a binding signal of -0.126 E-score.
In the case of ACCGCCTA, the binding signal is -0.103 E-score.
Consider ACGTCAGG, for which the binding signal was -0.225 E-score.
AGGTGGTA displayed a binding signal of 0.122 E-score.
In the case of ATAGTACG it was 0.248 E-score; in that of CTAGCCAC, 0.0288 E-score.
The same measure for CCTGAGCG: -0.101 E-score.
The same measure for CTGCGAAC: -0.116 E-score; for CGTTGTGA: 0.0682 E-score; for CTGGTCTA: -0.0758 E-score.
In the case of ATCTGTAC, the binding signal worked out at 0.0594 E-score.
With CTATCCGA, the binding signal stood at 0.0845 E-score.
The same measure for CACAAACC: -0.0611 E-score; for CCATCTAA: 0.126 E-score.
Regarding TCTTGCCA, the binding signal is -0.0538 E-score.
For the sequence AGTGATGG, the binding signal turned out to be 0.118 E-score.
With TTCACCAA, the binding signal is -0.00927 E-score.
As to GTAACCAA, the binding signal stood at 0.000641 E-score.
Sequence AACTATTC returned a binding signal of 0.219 E-score.
CAGGGGAC came in with a binding signal of -0.382 E-score.
Sequence ATCTGTGG had a binding signal of -0.12 E-score.
Regarding GTTTAAAC, the binding signal was found to be 0.0536 E-score.
Sequence ACCTTACA yielded a binding signal of 0.128 E-score.
ATTTTTAA came in with a binding signal of 0.146 E-score.
Take AACCTACT: the binding signal is 0.251 E-score.
Consider CAGCCTGC, for which the binding signal is -0.157 E-score.
Regarding CGCTCTCA, the binding signal was -0.164 E-score.
The sequence ACGGGCAC showed a binding signal of -0.0598 E-score.
CCTCCGCC registered a binding signal of -0.254 E-score.
As to CTACGAGA, the binding signal worked out at 0.177 E-score.
On to AGCTTGTC, for which the binding signal is 0.00187 E-score.
The sequence AGCCAGCC returned a binding signal of -0.267 E-score.
The same measure for GGATCGGA: -0.143 E-score; for AGAGCCGG: -0.295 E-score; for AGTATCCG: 0.0688 E-score.
The sequence GGGTGATA gave a binding signal of 0.131 E-score.
TGCAGAAA displayed a binding signal of -0.11 E-score.
Take ATCACTGC: the binding signal is -0.138 E-score.
AACGCAGA yielded a binding signal of -0.256 E-score.
For AAGTAAGC, the binding signal was determined as 0.061 E-score.
The same measure for ATACACCG: 0.0158 E-score.
The same measure for CGGGTTAG: -0.157 E-score; for CGAACTCC: -0.103 E-score.
As for CGAATCAG, the binding signal was 0.0524 E-score.
The sequence TACCTCTA returned a binding signal of 0.209 E-score.
Turning to CTTAAGCA, the binding signal was -0.142 E-score.
With AGAGCTGA, the binding signal was -0.173 E-score.
As to AGAAGTCC, the binding signal was -0.0822 E-score.
In the case of ATTGTTAA it was 0.228 E-score; in that of CACTAACG, -0.157 E-score.
